Source: PubChem BioAssay (NCATS)
The shares of active, inactive and inconclusive entries below differ from those in the screen. The call rests on the fitted dose curve; in most records, active means well fitted cell-killing curve with a large enough effect; inconclusive means small, poorly fitted or top-dose-only effect, or effect the other way; inactive means no such curve, though single readings can be large or run the other way. Potencies beside an inconclusive call are fits to weak or partial responses and may not hold up.

test: Viability qHTS for spleen associated tyrosine kinase inhibitor (SYKi) naive MV4-11 cells (AID 1963823); conditions: MV4-11 AML viability, CellTiter-Glo luminescence, 72 h; series mostly up to 45 µM; further: nearly all actives have a fitted effect of over 40% in size
Summary of the method: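 In this viability screen, compounds acted on SYK inhibitor naive MV4-11 cells for three days (72 hr, 37 C). Remaining viable cells were measured by CellTiter-Glo luminescence following a 10 min room-temperature development.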
Potency means the concentration at half of the fitted maximal effect; tags describe the fitted curve by direction and shape.

SMILES	Potency
Nc1ccc(O)cc1	inconclusive: 0.0094 µM [cytotoxic, full curve, poor fit]
C[C@@H](Oc1cc(-n2cnc3ccc(OC4CCN(C)CC4)cc32)sc1C(N)=O)c1ccccc1Cl	inconclusive: 0.0259 µM [cytotoxic, full curve]
COc1c2c(c(C)c3c1C(=O)OC3)OC1(C)CC(O)C(C(C)(C)O)C(C)(CCC(=O)O)C1C2 (stereo not drawn)	inconclusive: 14.2 µM [cytotoxic, single point]
